3 molecules from paper PMC10641524 can be followed below.

By UniProt entry, the sequences of proteins in these tests, tags left out.
UniProt Q9NP72: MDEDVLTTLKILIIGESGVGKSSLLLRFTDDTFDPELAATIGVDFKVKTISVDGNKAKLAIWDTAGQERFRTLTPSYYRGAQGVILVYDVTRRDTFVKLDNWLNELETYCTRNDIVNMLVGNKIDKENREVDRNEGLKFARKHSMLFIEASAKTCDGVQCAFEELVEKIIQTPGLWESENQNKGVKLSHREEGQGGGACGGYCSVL
UniProt P32019: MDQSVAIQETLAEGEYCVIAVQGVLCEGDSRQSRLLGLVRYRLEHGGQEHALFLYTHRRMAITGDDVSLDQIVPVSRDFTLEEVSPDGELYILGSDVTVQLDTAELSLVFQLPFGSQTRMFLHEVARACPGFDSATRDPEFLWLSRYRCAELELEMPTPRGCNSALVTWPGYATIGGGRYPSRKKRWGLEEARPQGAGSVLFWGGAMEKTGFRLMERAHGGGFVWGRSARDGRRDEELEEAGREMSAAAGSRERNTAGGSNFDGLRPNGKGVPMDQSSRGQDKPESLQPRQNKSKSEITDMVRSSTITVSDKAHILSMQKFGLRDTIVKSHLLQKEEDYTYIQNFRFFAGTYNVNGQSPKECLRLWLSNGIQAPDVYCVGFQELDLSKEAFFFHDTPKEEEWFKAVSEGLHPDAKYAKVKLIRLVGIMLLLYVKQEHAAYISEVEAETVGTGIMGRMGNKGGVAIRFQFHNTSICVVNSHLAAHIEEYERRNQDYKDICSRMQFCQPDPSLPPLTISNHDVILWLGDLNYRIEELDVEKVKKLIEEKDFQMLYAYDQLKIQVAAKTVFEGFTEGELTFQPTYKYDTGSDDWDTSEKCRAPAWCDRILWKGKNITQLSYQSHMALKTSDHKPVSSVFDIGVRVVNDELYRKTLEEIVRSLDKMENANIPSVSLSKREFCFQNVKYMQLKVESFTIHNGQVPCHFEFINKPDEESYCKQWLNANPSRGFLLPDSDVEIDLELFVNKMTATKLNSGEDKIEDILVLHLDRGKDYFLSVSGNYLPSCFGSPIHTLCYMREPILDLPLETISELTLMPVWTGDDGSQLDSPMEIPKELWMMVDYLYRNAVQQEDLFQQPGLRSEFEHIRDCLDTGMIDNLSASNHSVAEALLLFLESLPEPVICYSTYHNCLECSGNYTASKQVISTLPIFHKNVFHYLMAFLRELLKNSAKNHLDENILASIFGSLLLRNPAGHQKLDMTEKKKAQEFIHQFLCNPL

Assay [1] deals with HA-RAB18 (UniProt Q9NP72). Nature of the assay: co-IP; anti-HA immunoprecipitation (protein G Dynabeads) from lysates of transfected WT HeLa cells (for TMCO4-EGFP also TRAPPC9-null cells), 24 h post-transfection; 150 mM NaCl, 0.5% Triton X-100, 10 mM Tris pH 7.4; immunoblot for HA and GFP or mCherry. On the technique in general: Immunoblotting shows a protein as a band on a membrane.

For assay [2], the target named is HA-RAB18 (UniProt Q9NP72). Description: co-IP; anti-HA immunoprecipitation (protein G Dynabeads) from lysates of transfected RAB3GAP1-null HeLa cells; 150 mM NaCl, 0.5% Triton X-100, 10 mM Tris pH 7.4; immunoblot for HA and GFP.
For assay [3], the target named is HA-RAB18 (UniProt Q9NP72). Description: co-IP; anti-HA immunoprecipitation (protein G Dynabeads) from lysates of transfected WT HeLa cells (for TMCO4-EGFP also TRAPPC9-null cells), 24 h post-transfection; 150 mM NaCl, 0.5% Triton X-100, 10 mM Tris pH 7.4; immunoblot for HA and GFP or mCherry. This is another data set of the same source.

Results are given in words; binding and its absence hold for the method and conditions named. Binding seen in cells or lysates may run through a third protein. Some results given as binding are weak or reduced against the parent protein; the word gives no strength. For some assays here: Tags and fused reporters may be left off the sequences shown.

Take “mCherry-INPP5B (from UniProt P32019 1-993)”: in assay [1], the binding entry is “binds”.

B1: mEmerald-SEC22A (protein, UniProt Q96IW7 1-307)
chain: MSMILSASVIRVRDGLPLSASTDYEQSTGMQECRKYFKMLSRKLAQLPDRCTLKTGHYNINFISSLGVSYMMLCTENYPNVLAFSFLDELQKEFITTYNMMKTNTAVRPYCFIEFDNFIQRTKQRYNNPRSLSTKINLSDMQTEIKLRPPYQISMCELGSANGVTSAFSVDCKGAGKISSAHQRLEPATLSGIVGFILSLLCGALNLIRGFHAIESLLQSDGDDFNYIIAFFLGTAACLYQCYLLVYYTGWRNVKSFLTFGLICLCNMYLYELRNLWQLFFHVTVGAFVTLQIWLRQAQGKAPDYDV
In the case of B1, the values for the binding result in assay [2] and in assay [3] were “no binding (condition: in RAB3GAP1-null cells)” and “binds”, respectively.

B2: TMCO4-EGFP (protein, UniProt Q5TGY1 1-634)
chain: MAMWNRPCQRLPQQPLVAEPTAEGEPHLPTGRELTEANRFAYAALCGISLSQLFPEPEHSSFCTEFMAGLVQWLELSEAVLPTMTAFASGLGGEGADVFVQILLKDPILKDDPTVITQDLLSFSLKDGHYDARARVLVCHMTSLLQVPLEELDVLEEMFLESLKEIKEEESEMAEASRKKKENRRKWKRYLLIGLATVGGGTVIGVTGGLAAPLVAAGAATIIGSAGAAALGSAAGIAIMTSLFGAAGAGLTGYKMKKRVGAIEEFTFLPLTEGRQLHITIAVTGWLASGKYRTFSAPWAALAHSREQYCLAWEAKYLMELGNALETILSGLANMVAQEALKYTVLSGIVAALTWPASLLSVANVIDNPWGVCLHRSAEVGKHLAHILLSRQQGRRPVTLIGFSLGARVIYFCLQEMAQEKDCQGIIEDVILLGAPVEGEAKHWEPFRKVVSGRIINGYCRGDWLLSFVYRTSSVQLRVAGLQPVLLQDRRVENVDLTSVVSGHLDYAKQMDAILKAVGIRTKPGWDEKGLLLAPGCLPSEEPRQAAAAASSGETPHQVGQTQGPISGDTSKLAMSTDPSQAQVPVGLDQSEGASLPAAASPERPPICSHGMDPNPLGCPDCACKTQGPSTGLD
As for B2, the binding result is listed as “no binding (condition: in RAB3GAP1-null cells)” in assay [2] and “binds” in assay [3].
